Measured values reported in PubChem BioAssay AID1508621 (National Center for Advancing Translational Sciences (NCATS), 2021).
This list was built around the results that the source calls inconclusive (neither active nor inactive); the mix of calls is not that of the screen. Potencies beside an inconclusive call are fits to weak or partial responses and may not hold up. Calls of active or inactive are those of the source. Calls follow the shape of the dose curve; as a rule, active = well fitted inhibition curve with a large enough effect; inconclusive = small, poorly fitted or top-dose-only effect; inactive = no such curve, though single readings can be large or run the other way.

Experiment: Confirmatory qHTS for Identification of Small Molecule Inhibitors of Huntingtin Promoter Activity; also: nearly all actives have a fitted effect of over 65% in size
Summary of the method: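 HEK293 luciferase reporter cells, 2,500/well, cultured 24 h, then exposed to compounds at up to 57.5 uM final for 24 h at 37C. Firefly luciferase luminescence read; normalized to vehicle (0%) and zero RLU (-100%).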
Potency is read from the fitted curve at half-maximal effect; tags tell the direction and shape of the fitted curve.

| SMILES | Potency |
| --- | --- |
| OCCCn1c(-c2ccc(F)cc2)csc1=Nc1ccc(F)cc1 | inconclusive: 21.3 µM [inhibitor, single point] |
| Cc1ccc(NC(=O)c2cc(S(=O)(=O)N3CCc4ccccc43)ccc2F)cc1Cl | inconclusive: 23.9 µM [inhibitor, single point] |
| CC1=C(C(=O)OC2CCCC2)C(c2ccccc2Cl)CC(=O)N1 (configuration not stated) | inconclusive: 37.9 µM [inhibitor, single point] |
| Cc1ccc(C(C)C)c(OCCn2cc(C(=O)c3ccco3)c3ccccc32)c1 | inconclusive: 30.1 µM [inhibitor, single point] |
| COc1ccc(-n2c(-c3ccco3)nc3c(cnn3-c3ccc(Cl)cc3)c2=O)cc1 | inconclusive: 7.57 µM [inhibitor, partial curve] |
| Cc1ccc(CN(C(=O)c2ccc(OCC(C)C)cc2)c2ccccn2)o1 | inactive |
| COc1cc(OC)c(OC)cc1CN1CCc2nc(N3CCN(c4ncccn4)CC3)ncc2C1 | inconclusive: 19 µM [inhibitor, partial curve] |
| Cc1ccc(Cl)cc1N1CCN(C(=O)c2ccc3c(c2)N(Cc2ccc(F)cc2)CCS3)CC1 | inconclusive: 30.1 µM [inhibitor, partial curve] |
| CCN(C(=O)C1CCC(CNS(=O)(=O)c2cccc3nsnc23)CC1)c1ccccc1 (configuration not stated) | inconclusive: 16.9 µM [inhibitor, partial curve] |
| CCN(c1ccccc1)S(=O)(=O)c1cc(C(=O)Nc2ccc(Br)cc2)ccc1F | inconclusive: 15.1 µM [inhibitor, partial curve] |
| CCn1c(SCc2ccc(F)cc2Cl)nc(=O)c2c(C(=O)OC)cc(C3CC3)nc21 | inconclusive: 23.9 µM [inhibitor, partial curve] |
| CCc1ccc(NC(=O)C2CCCN2S(=O)(=O)c2ccc3c(c2)CCCC(=O)N3)cc1 (configuration not stated) | inconclusive: 23.9 µM [inhibitor, partial curve, poor fit] |
| CN(C)c1ccc(C(=O)NCCCCCCC(=O)NO)cc1 | inactive |
| CCc1ccc(CNC(=O)c2ccc3nc(SCc4ccc(F)cc4)n(C)c3c2)cc1 | inconclusive: 15.1 µM [inhibitor, partial curve] |
| CC1Cc2cc(S(=O)(=O)NCc3ccccc3)ccc2N1C(=O)C1CCC1 (configuration not stated) | inconclusive: 19 µM [inhibitor, partial curve] |
| CCOc1ccc(NC(=O)c2ccc(F)c(S(=O)(=O)NCc3ccc4c(c3)OCO4)c2)cc1 | inconclusive: 21.3 µM [inhibitor, partial curve] |
| COc1ccc(CCNC(=O)c2cc3sccc3n2Cc2ccc(Cl)cc2)cc1OC | inconclusive: 13.5 µM [inhibitor, partial curve] |
| Fc1cc(Br)ccc1Nc1c2c(nc3nc(-c4cccs4)nn13)CCCC2 | inconclusive: 26.9 µM [inhibitor, partial curve] |
| Cc1cc(NC(=O)c2cc(-c3ccc(F)cc3)on2)nn1Cc1ccc(Cl)cc1 | inconclusive: 2.13 µM [inhibitor, full curve] |
| O=C(Nc1nc2cccc(-c3ccc(CN4CCS(=O)(=O)CC4)cc3)n2n1)C1CC1 | inactive |
| O=C(CCCCCCNC(=O)c1cnc(N(c2ccccc2)c2ccccc2)nc1)NO | inactive |

| SMILES | Potency |
| --- | --- |
| Cc1cc(SCC(=O)Nc2nsc(-c3ccc(C(C)(C)C)cc3)n2)nc2ccccc12 | inactive |
| O=C(Nc1ccc(Br)cc1)c1ccc(F)c(S(=O)(=O)NC2CCCCCC2)c1 | inconclusive: 2.69 µM [inhibitor, full curve] |
| Cc1ccc(NC(=O)c2c(NC(=O)C(F)(F)F)sc3c2CCCCC3)cc1 | inconclusive: 1.07 µM [inhibitor, full curve] |
| CCc1ccc(OCC2c3cc(OC)c(OC)cc3CCN2C(=O)COc2ccccc2)cc1 (configuration not stated) | inconclusive: 30.1 µM [inhibitor, partial curve] |
| CCCOC(=O)c1cccc(NC(=O)c2c(-c3ccccc3Cl)noc2C)c1 | inconclusive: 16.9 µM [inhibitor, partial curve] |
| COc1ccc(-c2cc(C(=O)N3CCN(c4ccccc4OC)CC3)c3cc(C(C)C)ccc3n2)cc1 | inconclusive: 30.1 µM [inhibitor, partial curve] |
| CCSc1ncc(Cl)c(C(=O)Nc2ccc(S(=O)(=O)N3CCCCC3)cc2)n1 | inconclusive: 6.75 µM [inhibitor, partial curve] |
| Cc1oc(-c2ccc(C(=O)NCc3ccccc3Cl)cc2)nc1CN1CCc2ccccc21 | inconclusive: 1.9 µM [inhibitor, full curve] |
| COc1ccc(-c2nc3cc(NC(=O)Cc4ccc(Cl)cc4)ccc3o2)cc1OC | inconclusive: 19 µM [inhibitor, single point] |
| CCCc1cc(N2CCN(c3ccccc3)CC2)n2cnnc2n1 | inconclusive: 10.7 µM [inhibitor, partial curve] |
| COc1ccc(CCNc2ncnc3onc(C)c23)c(OC)c1 | inconclusive: 1.07 µM [inhibitor, full curve] |
| CC(C)[C@H](CO)Nc1nc(Nc2ccc(C(=O)O)c(Cl)c2)c2ncn(C(C)C)c2n1 | inactive |
| CCCCOc1cccc(C(=O)N(Cc2ccc(C)o2)c2ccccn2)c1 | inconclusive: 9.53 µM [inhibitor, partial curve] |
| CCc1ccc(NC(=O)c2ccc(F)c(S(=O)(=O)N3CCC4(CC3)OCCO4)c2)cc1 | inconclusive: 9.53 µM [inhibitor, partial curve, poor fit] |
| COc1ccc(N2CCN(C(CNC(=O)C(=O)NCCc3ccccc3)c3cccnc3)CC2)cc1 (configuration not stated) | inconclusive: 21.3 µM [inhibitor, partial curve] |
| Cc1ccccc1OCC(=O)Nc1ccccc1C(=O)OCc1cc(=O)n2c(C)csc2n1 | inactive |
| CCCCc1nc2cc(C=CC(=O)NO)ccc2n1CCN(CC)CC | inactive |
| CCOc1ccc(CCNC(=O)c2cc3c(-c4cccc(OC)c4)nn(C)c3s2)cc1OCC | inconclusive: 26.9 µM [inhibitor, partial curve] |
| CCC1=Nc2cc(C(=O)NC3CCCC3)ccc2Sc2ccc(Cl)cc21 | inconclusive: 3.79 µM [inhibitor, full curve] |
| CCOc1ccc(CCNC(=O)c2ccc(CS(=O)(=O)Cc3ccccc3Cl)o2)cc1OCC | inconclusive: 26.9 µM [inhibitor, partial curve] |
| CC1Cc2cc(S(=O)(=O)NCc3ccc(F)cc3)ccc2N1C(=O)C1CCC1 (configuration not stated) | inconclusive: 8.49 µM [inhibitor, partial curve] |

| SMILES | Potency |
| --- | --- |
| COc1cccc(NC(=O)CN2CCCN(S(=O)(=O)c3ccc(Br)cc3)CC2)c1 | inconclusive: 21.3 µM [inhibitor, single point] |
| COC(=O)c1c(C)oc2ccc(N(C(=O)c3ccncc3)S(=O)(=O)c3cc(C)c(C)cc3C)cc12 | inconclusive: 6.75 µM [inhibitor, partial curve] |
| COc1ccc(Cn2c(SCc3ccc(C(=O)NC4CCCCC4)cc3)nc3ccncc32)cc1 | inconclusive: 21.3 µM [inhibitor, partial curve] |
| Cc1ccc(-c2nc(S(=O)(=O)c3ccccc3)c(SCC(=O)NC3CCCCC3)o2)cc1 | inconclusive: 19 µM [inhibitor, partial curve] |
| Cc1ccc(C(=O)Nc2ccc(F)cc2)cc1S(=O)(=O)N1CCCCCC1 | inactive |
| CCc1cccc(C)c1NC(=O)Cn1cc2c(n1)CCCC2 | inconclusive: 13.5 µM [inhibitor, partial curve] |
| Cc1ccc(C(=O)Nc2nnc(SCc3cc(=O)c4c(C)ccc(C)c4[nH]3)s2)cc1 | inconclusive: 37.9 µM [inhibitor, single point] |
| Cn1c(CN2CCCCC2)nc2cc(NC(=O)c3ccc(Cl)cc3)ccc21 | inconclusive: 2.69 µM [inhibitor, full curve] |
| CCCCN(C)C(=O)C1CCCN(c2ncnc3onc(C)c23)C1 (configuration not stated) | inconclusive: 1.35 µM [inhibitor, full curve] |
| CCc1c(C)sc2c1CCN(Cc1ccc(F)cc1)C2c1ccccc1 (configuration not stated) | inactive |
| Cc1cccc(NS(=O)(=O)c2ccc3c(c2)CCN3C(=O)C2CCC2)c1 | inconclusive: 9.53 µM [inhibitor, partial curve] |
| COc1ccc(C2=CC(c3ccc(F)cc3)n3ncc(C(=O)Nc4ccc(C)cc4)c3N2)cc1 (configuration not stated) | inconclusive: 26.9 µM [inhibitor, single point] |
| C#Cc1cccc(Nc2ncnc3cc(OC)c(OCCCCCCC(=O)NO)cc23)c1 | inactive |
| CC(C)c1ccc(NC(=O)c2ccc(F)c(S(=O)(=O)N3CCCCCC3)c2)cc1 | inconclusive: 0.757 µM [inhibitor, full curve] |
| CC(C)c1ccc(Cc2cnc(NC(=O)c3ccc4c(c3)CC(c3ccccc3)OC4=O)s2)cc1 (configuration not stated) | active: 3.79 µM |
| CCN(CC)CCNC(=O)c1c(C)[nH]c(C=C2C(=O)Nc3ccc(F)cc32)c1C | inactive |
| CCN(Cc1ccccc1)C(=O)C1CCN(S(=O)(=O)c2c(C)noc2/C=C/c2ccc(C)cc2)CC1 | inconclusive: 21.3 µM [inhibitor, partial curve] |
| CCCSCCCNC(=O)c1cc2n(n1)CCCN(Cc1ccc(C)cc1)C2=O | inconclusive: 15.1 µM [inhibitor, partial curve] |
| COc1ccccc1NC(=O)CSc1oc(-c2ccccc2)nc1S(=O)(=O)c1ccccc1 | inconclusive: 12 µM [inhibitor, partial curve] |
| Cc1ccc(C(Nc2ccccn2)c2ccc3cccnc3c2O)cc1 (configuration not stated) | inconclusive: 30.1 µM [inhibitor, single point] |
